Measurements: publication PMC4336329 (PLoS ONE, 2015)
The whole screen tested about 310,000 compounds, of which about 14,000 (4.5%) showed an effect of 50% or more. Effects have a minus sign here. This is one part of the list.

Molecular target: human ether-à-go-go-related gene (hERG) potassium channel (human, UniProt Q12809)
Test: primary screen, population patch clamp on CHO cells stably expressing hERG
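Further: peak tail current of the secondary pulse compared with the same well before compound.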

Sequence of human ether-à-go-go-related gene (hERG) potassium channel (Q12809 whole entry, looked up): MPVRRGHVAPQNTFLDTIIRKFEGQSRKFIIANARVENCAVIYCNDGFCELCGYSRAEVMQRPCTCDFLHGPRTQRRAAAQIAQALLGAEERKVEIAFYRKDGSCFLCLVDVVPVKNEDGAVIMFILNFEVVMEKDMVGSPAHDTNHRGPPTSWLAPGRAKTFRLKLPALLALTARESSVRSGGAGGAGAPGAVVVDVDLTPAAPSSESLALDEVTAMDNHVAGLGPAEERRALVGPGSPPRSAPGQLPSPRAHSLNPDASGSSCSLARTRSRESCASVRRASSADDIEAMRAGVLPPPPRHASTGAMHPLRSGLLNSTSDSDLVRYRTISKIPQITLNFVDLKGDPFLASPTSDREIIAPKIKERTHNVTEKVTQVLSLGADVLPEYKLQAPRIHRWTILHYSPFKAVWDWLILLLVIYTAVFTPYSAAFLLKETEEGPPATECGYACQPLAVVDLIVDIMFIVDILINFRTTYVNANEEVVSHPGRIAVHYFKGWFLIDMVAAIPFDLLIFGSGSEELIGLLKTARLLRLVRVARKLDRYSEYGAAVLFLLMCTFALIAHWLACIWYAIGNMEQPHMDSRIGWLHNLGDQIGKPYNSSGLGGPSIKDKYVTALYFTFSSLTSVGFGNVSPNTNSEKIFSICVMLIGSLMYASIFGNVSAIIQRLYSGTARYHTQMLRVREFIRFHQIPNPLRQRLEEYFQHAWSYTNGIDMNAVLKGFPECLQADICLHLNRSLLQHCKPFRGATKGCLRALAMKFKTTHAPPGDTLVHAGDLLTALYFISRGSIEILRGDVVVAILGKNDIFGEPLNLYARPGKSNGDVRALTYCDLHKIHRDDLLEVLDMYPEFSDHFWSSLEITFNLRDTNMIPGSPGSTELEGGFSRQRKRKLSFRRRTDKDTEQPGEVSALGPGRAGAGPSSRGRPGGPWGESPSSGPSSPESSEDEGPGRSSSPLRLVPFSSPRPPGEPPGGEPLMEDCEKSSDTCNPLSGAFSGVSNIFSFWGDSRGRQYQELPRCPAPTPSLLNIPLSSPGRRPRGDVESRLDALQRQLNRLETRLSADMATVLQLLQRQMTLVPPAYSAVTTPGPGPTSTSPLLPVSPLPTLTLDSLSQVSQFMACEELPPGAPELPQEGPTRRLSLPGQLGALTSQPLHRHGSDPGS

Row | Structure (SMILES) | hERG current change (%, negative = inhibition) at 10uM
1 | CCOC(=O)N1CCN(C(=O)COc2cccc3c2CCN(Cc2ccccc2C)C3=O)CC1 | -40.7%
2 | CCN1CCN(C(=O)c2ccc(S(=O)(=O)Nc3ccccc3)cc2)CC1.Cl | 12.7%
3 | Cc1ccc(C)n1-c1ccc2c(c1)COC2=O | -8.86%
4 | O=C(CN1CCCC1)Nc1c(C(=O)C2CC2)oc2ccccc12 | -9.92%
5 | COc1ccc(Cn2nnnc2C(c2ccncc2)N2CCOCC2)cc1 (stereo not drawn) | -20.7%
6 | O=C(NCC1COc2ccccc2O1)c1ccc(NC(=O)C(c2ccccc2)c2ccccc2)cc1 (stereo not drawn) | 14%
7 | COC(=O)c1cn(NC(=O)C2COc3ccccc3O2)c(=O)c2ccccc12 (stereo not drawn) | 15%
8 | CC(C)CC(NC(=O)C1CCC(C)CC1)C(=O)Nc1ccc2c(c1)OCCO2 (stereo not drawn) | 3.49%
9 | O=C(NCCC(=O)N1CCN(c2ccccc2O)CC1)c1ccc(Br)cc1 | -13.3%
10 | O=C(c1ccc(Cl)c(Cl)c1)N1CCC(O)(CN2CCOCC2)CC1 | -9.37%
11 | COc1cccc(CN2CCNC(=O)C2CC(=O)NCc2cn3ccc(C)cc3n2)c1OC (stereo not drawn) | 23%
12 | COc1ccc(-n2nnnc2CNC(=O)C2CC(=O)N(c3ccc(Cl)cc3)C2)cc1 (stereo not drawn) | -45.9%
13 | Cc1ccc(-c2nnn(CC(=O)N3CCCCC3)n2)o1 | -14.3%
14 | COc1cccc(C(C(=O)NC2CCCCC2)N(C(=O)CNC(=O)c2ccco2)c2cccnc2)c1 (stereo not drawn) | -2.85%
15 | c1ccc2c3c([nH]c2c1)CNCC3 | -4.8%
16 | Cc1cccc(C)c1NC(=O)CCCSc1nnc(-c2ccco2)n1-c1ccccc1 | -30.4%
17 | CCOc1ccc(CN2CCN(C(=O)c3cccc(F)c3)CC2)cc1.O=C(O)C(=O)O | -62%
18 | O=C(N/N=C1\CCSC1)c1cc(Cl)ccc1O | -1.56%
19 | COc1ccccc1-n1nnnc1SCC(=O)N(CC(C)C)C1CCS(=O)(=O)C1 (stereo not drawn) | -18.1%

Row | Structure (SMILES) | hERG current change (%, negative = inhibition) at 10uM
20 | Cc1cc(NC(=O)CN2C(=O)NC(CC(C)C)C2=O)ccc1Br (stereo not drawn) | 1.99%
21 | O=C(NCc1ccc2c(c1)OCO2)C1CCN(S(=O)(=O)c2ccc(Br)s2)CC1 | -24%
22 | COc1ccc(CC(=O)Nc2ccc(S(=O)(=O)Nc3onc(C)c3C)cc2)cc1OC | 20.9%
23 | Br.FC(F)Oc1ccc(-c2csc(NNC3=NCCCCC3)n2)cc1 | -47.5%
24 | Cc1ccc(SCC(=O)OCC(=O)NCCc2ccccc2)cc1 | 3.67%
25 | Cn1nc(C(=O)Nc2ccc(Br)cc2)cc1C(=O)Nc1ccc(Br)cc1 | 1.5%
26 | CC(C)[C@H](NC(=O)NCc1ccc(F)cc1)C(=O)O | 4.2%
27 | CCOc1ccc(-c2csc3nc[nH]c(=O)c23)cc1 | 14.9%
28 | Cc1ccc(NC(=O)COc2ccccc2)c(NC(=O)c2ccccc2C)c1 | 5.51%
29 | CC1C(=O)N(Cc2ccccc2)c2ccccc2N1C(=O)c1ccccc1 (stereo not drawn) | -10%
30 | CCCc1nnc(SCC(=O)Nc2ccccc2Cl)n1CC1CCCO1 (stereo not drawn) | 1.13%
31 | Cc1nc(-c2ccc(F)cc2)c(CC(=O)N(C)CC(=O)Nc2ccc(Br)cc2C)s1 | 63.8%
32 | Cl.c1cc2c(cc1C1CCCCC1)c1c3n2CCCNC3CCC1 (stereo not drawn) | -9.4%
33 | O=c1oc2ccccc2c(O)c1/C=N/c1ccccn1 | 12.7%
34 | Cn1c(SCc2cccc(Br)c2)nc2ccccc2c1=O | 19.9%
35 | CCN(CC)c1ccc(NC(=O)COC(=O)c2ccc3ccccc3n2)cc1 | -11.6%
36 | COc1ccc(CNC(=O)CSCc2c(F)cccc2Cl)cc1 | -12.1%
37 | C=Cc1cccc(NC(=O)COc2ccccc2)c1 | -3.28%
38 | C=CCOC(=O)C1=C[C@@H](c2ccc(Br)cc2)[C@H](CCCO)[C@@H](OCC)O1 | -22.6%

Row | Structure (SMILES) | hERG current change (%, negative = inhibition) at 10uM
39 | O=C(OC1CCCCC1=O)c1cccc(S(=O)(=O)N2CCCCC2)c1 (stereo not drawn) | -14%
40 | C=CC(COCc1ccccc1)N(C(=O)OC(C)(C)C)S(=O)(=O)c1ccccc1Br (stereo not drawn) | 5.94%
41 | CCOC(=O)N1CCC(NC(=O)CCC(=O)N2CCOc3ccc(C)cc32)CC1 | 2.22%
42 | COc1cccc(CNC(=O)CCS(=O)(=O)c2cccs2)c1 | -41.1%
43 | COC(=O)C1CCN(C(=O)c2cc3c(=O)n4cccc(C)c4nc3n2Cc2ccccc2)CC1 | 13.2%
44 | Cc1ccc(CNC(=O)Cc2ccc(-n3c(=O)[nH]c4ccsc4c3=O)cc2)cc1 | 3.2%
45 | CC(C(=O)Nc1ccc2c(c1)OCCO2)N(C)Cc1c(F)cccc1Cl (stereo not drawn) | -4.03%
46 | COc1ccc(NC(=O)CSC2=NC(=O)CC(C)=N2)cc1 | 15.1%
47 | O=C(CNC(=S)NC(=O)c1ccc(F)cc1)c1ccccc1 | 5.25%
48 | CCC(C)Oc1ccc(C(=O)Nc2ccc(CN3CCOCC3)cc2)cc1 (stereo not drawn) | -27.2%
49 | CCN1C(=O)/C(=C\N2CCN(C(=O)c3ccco3)CC2)SC1=S | 1.87%
50 | COc1ccc(-c2nc(CNS(=O)(=O)c3cc(OC)ccc3OC)cs2)cc1 | -16.5%
51 | CCn1c(=O)c2c3c(sc2n2cnnc12)CCC3 | 20%
52 | Cc1cc(=O)n2cc(-c3ccccc3)nc2[nH]1 | -4.94%
53 | Cc1ccc(S(=O)(=O)N2CCN(C(=O)CN3CCc4ccccc4C3)CC2)cc1.O=C(O)C(=O)O | -25.7%
54 | Cc1ccc(C2CC(c3cccc(Br)c3)n3nc(N)nc3N2)cc1 (stereo not drawn) | -2.47%
55 | Cc1nnc2ccc(-c3ccc(NC(=O)c4ccco4)cc3)nn12 | -9.73%
56 | Nc1cc(Cl)c(N)cc1Cl | 3.99%
57 | CSc1nsc(SCC(=O)Nc2cc(C(=O)O)ccc2C)n1 | 6.92%
